Source: PubChem BioAssay AID624202 (National Center for Advancing Translational Sciences (NCATS), 2012)
Screen size: about 380,000 compounds; about 4,000 (1.1%) were called active. The inconclusive results got no clear call from the source; some entries with a clear call stand among them for comparison. Calls follow the shape of the dose curve; as a rule, active = well fitted activation curve with a large enough effect; inconclusive = small, poorly fitted or top-dose-only effect; inactive = no such curve, though single readings can be large or run the other way. A potency beside an inconclusive call is a rough fit, not a confirmed value.

Assay: qHTS Assay to Identify Small Molecule Activators of BRCA1 Expression; also: nearly all actives have a fitted effect of over 80% in size
Settings: MCF7-BRCA1-FFLuc reporter, luminescence, 48 h; activation: at 46.1 µM (top of the series), scaled: vehicle 0%, 10 µM genistein 100% unless noted
Source text: Functionally, BRCA1 has been implicated in a wide array of cellular activities, including DNA damage repair, cell-cycle checkpoint control, growth inhibition, apoptosis, transcriptional regulation, chromatin remodeling, protein ubiquitylation, and mammary stem cell self-renewal and differentiation. Reduction in BRCA1 levels is associated with an increase in tumor growth and resistance to anti-estrogenic agents, such as tamoxifen, while an increase in BRCA1 expression leads to cell growth arrest and apoptosis. […] The frequent loss of BRCA1 expression in invasive breast cancers in the absence of somatic mutation has been attributed to numerous mechanisms, including hypermethylation of the BRCA1 promoter, exaggerated ubiquitylation of BRCA1 protein, and improper intracellular localization. […] Basal-like breast cancers (BLBCs) are associated with an aggressive clinical course, resistance to chemotherapy, and typically lack expression of estrogen receptor (ER), progesterone receptor (PR), and epidermal growth factor receptor 2 (HER2). BLBCs account for 10-17% of all breast cancers, have few therapeutic options, and are considered the biggest unmet need in the treatment of breast cancer. Conversely, tumors which maintain expression of functional BRCA1 are almost uniformly luminal type cancers, and are accordingly associated with more indolent clinical courses, responsiveness to endocrine therapies, and improved survival.
As such, it is possible that an increase in BRCA1 expression would enable cellular differentiation and restore tumor suppressor function, resulting in delayed tumor growth and less aggressive, more treatable breast cancers. The long term goal of this proposal is to develop a novel prevention or therapeutic agent for breast cancer patients. To accomplish this goal, the overall objective of this proposal is to access the resources provided by the NIH Molecular Libraries Roadmap Initiative and the Molecular Libraries Probe Production Centers Network (MLPCN) to discover and develop new chemical activator probes that will increase BRCA1 expression and function.
NIH Molecular Libraries Probe Production Network [MLPCN]
NIH Chemical Genomics Center [NCGC]
PI Name: Lisa Harlan-Williams, University of Kansas Medical Center
5microl of MCF7-BRCA1-FFLuc cell suspension (400 cells/microl in phenol-red free MEM) are dispensed into Greiner white solid bottom 1536-well assay plates, yielding a final well density of 2000 cells/well. Plates are incubated for 2 hours at 37 degrees C in 5% humidified CO2 to allow cell attachment. Compounds are then transferred via Kalypsys pin tool equipped with 1536-pin array (10nl slotted pins, V&P Scientific, San Diego, CA). The plates are then incubated at 37 degrees C in 5% humidified CO2 for 48 hours. The NCGC in-house luciferase substrate reagent, Buglite, is then added (2.5microl) and plates incubated for 15 minutes, before being transferred to a ViewLux high-throughput CCD imager (PerkinElmer) wherein single end-point measurements of luminescence are acquired using a clear filter. The positive control compound, genistein, will be pinned into dedicated control columns on each plate, including a 16-point 1:3 titration in duplicate, as well as a 10microM maximum activation control, allowing for the normalization of screening activity. DMSO will be pinned into a separate column as a negative control.
All screening operations will be performed on a fully integrated robotic system (Kalypsys, San Diego, CA) containing one RX-130 and two RX-90 anthropomorphic robotic arms (Staubli, Duncan, SC). Library plates will be screened starting from the lowest and proceeding to the highest concentration. Vehicle-only plates, with DMSO being pin-transferred to columns 5-48, will be inserted uniformly at the beginning and the end of each library in order to monitor and record any shifts in the background, which can be affected by reagent dispensers or loss in enzyme activity over time. […]
Potency is read from the fitted curve at half-maximal effect; tags tell the direction and shape of the fitted curve.

Row | Compound | Potency | activation
1 | CN(CC(=O)NC(=O)Nc1ccccc1F)Cc1ccccc1 | inconclusive: 22.4 µM [activator, single point] | –
2 | COc1cccc(C(=O)Nc2ccc3c(c2)OCO3)c1OC | inconclusive: 2.51 µM [activator, full curve, poor fit] | –
3 | CC(C)C1Nc2ccc(C(=O)N3CCN(c4ccccn4)CC3)cc2NC1=O (centres undefined) | – | inactive: 1.62%
4 | CCOC(=O)c1sc(-c2ccc(OC)cc2)cc1NC(C)=O | inconclusive: 2.51 µM [activator, full curve, poor fit] | –
5 | CC(=O)Oc1ccc(/C=C2/CCc3ccccc3C2=O)cc1 | active: 12.6 µM | –
6 | Cc1nn(C)cc1CNC(=O)Nc1cccc(Cl)c1 | inconclusive: 2.24 µM [activator, full curve, poor fit] | –
7 | O=C(c1cc(-c2ccc(O)cc2)on1)N1CCCCCC1 | inconclusive: 2.24 µM [activator, full curve, poor fit] | –
8 | COc1ccc(C2c3[nH]c4ccccc4c3C[C@H]3C(=O)N(C4CCN(Cc5ccccc5)CC4)CC(=O)N23)cc1OC (some centres undefined) | – | inactive: -14.1%
9 | CCCCNC(=O)c1sc2nc(C)cc(COC)c2c1-n1cccc1 | – | inactive: -9.08%
10 | N/C(=N\OC(=O)CC1CCCCC1)c1ccccn1 | inconclusive: 17.8 µM [activator, partial curve, poor fit] | –
11 | CC(=O)Cc1nsc(Nc2ccccc2)n1 | inconclusive: 14.1 µM [activator, single point] | –
12 | CCn1c(C)nc2cc(C(=O)N/N=C/c3ccc(O)cc3)ccc21 | inconclusive: 17.8 µM [activator, partial curve, poor fit] | –
13 | Cc1ccc(C2=NN3C(=O)c4ccccc4C3C2)cc1 (centres undefined) | inconclusive: 7.94 µM [activator, partial curve, poor fit] | –
14 | O=C(NC(=S)Nc1ccc2c(c1)OCCO2)c1ccco1 | inconclusive: 1.41 µM [activator, full curve, poor fit] | –
15 | N/C(=N\OC(=O)c1ccco1)c1ccc(Cl)cc1 | inconclusive: 12.6 µM [activator, partial curve, poor fit] | –
16 | C/C(=N/NC(=O)c1cc(C2CC2)[nH]n1)c1cccs1 | – | inconclusive: -101% [activator]
17 | COc1cc(/C=N/Nc2nncc3ccccc23)cc(OC)c1OC | active: 7.08 µM | –
18 | COc1cccc2oc3cc(C#CC4(O)CCCCC4)ccc3c(=O)c12 | inconclusive: 3.98 µM [activator, partial curve, poor fit] | –
19 | COc1ccccc1NC(=O)C(=O)/C=C(\O)c1ccccc1 | active: 2.82 µM | –
20 | S=C(Nc1ccc(Oc2ccccc2)cc1)NC1CCCCC1 | – | inactive: -74.6%
21 | O=C1CCC(C(=O)N(Cc2ccco2)C2(C(=O)NC3CCCC3)CCCCC2)N1 (centres undefined) | – | inactive: -26.1%
22 | O=C(Nc1ccc2nccnc2c1)Nc1ccccc1Cl | active: 10 µM | –
23 | Cc1nc(NC(=O)c2ccccc2)sc1C | inconclusive: 2.51 µM [activator, full curve, poor fit] | –
24 | Cc1cccc(-n2ncc3c(N(CCO)CCO)ncnc32)c1 | inconclusive: 3.55 µM [activator, partial curve, poor fit] | –
25 | O=C(CCl)Nc1ccccc1C(=O)Nc1ccc2c(c1)OCO2 | inconclusive: 0.631 µM [activator, full curve, poor fit] | –

Row | Compound | Potency | activation
26 | O=C(NCc1cccc2ccsc12)c1cccs1 | inconclusive: 14.1 µM [activator, partial curve, poor fit] | –
27 | Cc1c(C(=O)N(C)C)sc(NC(=O)c2cccc([N+](=O)[O-])c2)c1C#N | inconclusive: 17.8 µM [activator, partial curve, poor fit] | –
28 | Cc1cc(C)cc(OCCn2nnc3ccccc32)c1 | active: 11.2 µM | –
29 | Clc1ccc(-c2nnc(-c3ccc4ccccc4c3)o2)cc1 | active: 2 µM | –
30 | c1csc(-c2nc(N3CCCCC3)no2)c1 | active: 6.31 µM | –
31 | CCOC(=O)c1cc(-c2ccccc2)sc1N | inconclusive: 10 µM [activator, partial curve, poor fit] | –
32 | O=c1c2c(nc3n1CCCCC3)sc1c(O)cccc12 | inconclusive: 11.2 µM [activator, partial curve, poor fit] | –
33 | COc1cccc(NC(=S)Nc2cc(C)cc(C)n2)c1 | inconclusive: 10 µM [activator, partial curve, poor fit] | –
34 | Clc1cccc(Cc2c(-c3ccco3)nc3ccc(Br)cn23)c1 | – | inactive: -7.06%
35 | CCCCN1C(=O)C(=O)N(c2ccccc2)C1=S | active: 5.01 µM | –
36 | Cc1c(/C=C/C(=O)c2ccccc2)cnn1C | inconclusive: 17.8 µM [activator, partial curve, poor fit] | –
37 | C=CCn1c(COc2ccc(OC)cc2)nc2ccccc21 | inconclusive: 15.8 µM [activator, partial curve, poor fit] | –
38 | COC(=O)c1ccc(/C(O)=C(\C#N)c2nc3ccccc3s2)cc1 | active: 5.01 µM | –
39 | CCCn1nnc(NC(=O)c2ccc(OC)cc2)n1 | inconclusive: 11.2 µM [activator, partial curve, poor fit] | –
40 | CCOC(=O)/C(=N/Nc1ccc(C)cc1)S(=O)(=O)c1ccc(Cl)cc1 | inconclusive: 12.6 µM [activator, partial curve, poor fit] | –
41 | Cc1cc(NC(=O)CS(=O)(=O)c2cn(Cc3cccc(Cl)c3)c3ccccc23)no1 | – | inactive: -9.29%
42 | Cc1csc2nc(CCNS(=O)(=O)c3cccs3)cn12 | inconclusive: 11.2 µM [activator, partial curve, poor fit] | –
43 | CCOc1ccc2nc(/N=C/c3c(C)[nH]n(-c4ccccc4)c3=O)sc2c1 | inconclusive: 14.1 µM [activator, partial curve, poor fit] | –
44 | COc1ccc(-c2nc(-c3ccccc3OC)no2)cc1OC | active: 10 µM | –
45 | CCOC(=O)N1CCN(c2ccnc3cc(Cl)ccc23)CC1 | – | inactive: -8.43%
46 | COc1ccc(Cc2nc3ccc(C(=O)N4CCCC4)cc3o2)cc1 | active: 6.31 µM | –
47 | O=C(CNCc1cccs1)Nc1ccc(OC(F)(F)F)cc1 | inconclusive: 15.8 µM [activator, single point] | –
48 | CCOC(=O)n1ccc(C(=O)Nc2ccccc2F)n1 | inconclusive: 17.8 µM [activator, partial curve, poor fit] | –
49 | CC1(C)Cc2c(sc(NC(=O)c3ccc(Br)o3)c2C#N)CO1 | inconclusive: 1.41 µM [activator, full curve, poor fit] | –
50 | O=C(Nc1cccc(O)c1)c1ccc([N+](=O)[O-])cc1Cl | active: 5.01 µM | –

Row | Compound | Potency | activation
51 | CCCCn1cnc2c(oc3ccccc32)c1=O | inconclusive: 10 µM [activator, partial curve, poor fit] | –
52 | COc1cc(C)ccc1OCc1cc(C(=O)N(Cc2c(C)nn(C)c2C)C2CC2)no1 | active: 12.6 µM | –
53 | O=C(/C=C/c1ccc2c(c1)OCCO2)c1ccccc1 | active: 7.08 µM | –
54 | COCCNC(=O)/C(C#N)=C/c1cc(C)n(C2CCCCC2)c1C | inconclusive: 2.24 µM [activator, full curve, poor fit] | –
55 | COc1cc(C=NO)nc(-c2ccccn2)c1 | – | inactive: -89.7%
56 | Cc1ccc(O)c(NC(=O)c2noc3c2CCc2ccccc2-3)c1 | inconclusive: 0.631 µM [activator, full curve, poor fit] | –
57 | COc1cc(C)ccc1OCCOc1c(C)cccc1Cl | inconclusive: 17.8 µM [activator, single point] | –
58 | COc1ccc(-n2c(=S)[nH]c3ccccc3c2=S)cc1 | – | inactive: -3.11%
59 | COc1ccc2c(c1OC)C(=O)OC2Nc1nc(-c2ccc([N+](=O)[O-])cc2)cs1 (centres undefined) | active: 12.6 µM | –
60 | Cc1ccc(-c2nc(-c3ccncc3)no2)cc1 | inconclusive: 2.82 µM [activator, partial curve, poor fit] | –
61 | CC(=O)Cc1nsc(Nc2ccc(F)cc2)n1 | inconclusive: 11.2 µM [activator, partial curve, poor fit] | –
62 | COc1ccccc1/C=C/C=N/NC(=O)Cc1cccs1 | inconclusive: 15.8 µM [activator, single point] | –
63 | O=[N+]([O-])c1ccc(-c2cn(-c3ccc(Cl)cc3)cn2)cc1 | inconclusive: 1.41 µM [activator, full curve, poor fit] | –
64 | CCCCN(C=O)c1c(CC)nc2ccc(C(=O)N3CCN(C)CC3)cn12 | – | inactive: -7.59%
65 | CCc1sc(C(=O)N2CCc3ccccc32)cc1C | inconclusive: 1.26 µM [activator, full curve, poor fit] | –
66 | Cc1ccc2scc(N3CCCC(C)C3)c(=O)c2c1 (centres undefined) | inconclusive: 15.8 µM [activator, partial curve, poor fit] | –
67 | CC(C)(C)c1ccc(-c2nnc(NC(=O)c3ccccc3)s2)cc1 | active: 3.16 µM | –
68 | CC(C)Oc1ccc(C(=O)NCCNC(=O)c2ccco2)cc1 | – | inactive: 61.4%
69 | O=C(NCc1ccc(Cl)cc1)c1cnn2ccccc12 | inconclusive: 3.55 µM [activator, partial curve, poor fit] | –
70 | O=c1oc2cc(O)ccc2cc1-c1ccc(F)cc1 | inconclusive: 11.2 µM [activator, partial curve, poor fit] | –
71 | Cc1c(C(=O)NC2CCCc3ccccc32)cccc1[N+](=O)[O-] (centres undefined) | – | inactive: -32.9%
72 | C=CCN1C(=O)C(Cc2ccc(F)cc2)S/C1=N/N=C/c1ccco1 (centres undefined) | – | inactive: -17.9%
73 | Cc1nc(-c2ccc3c(c2)CCC(=O)N3)cs1 | inconclusive: 14.1 µM [activator, partial curve, poor fit] | –
74 | O=C1CN(C(=O)CNCc2cccc(Cl)c2)c2ccccc2N1 | – | inactive: 14.5%
